# Laboratory results reported in the supplement of paper PMC8728848.
# This is one part of the list.
# B1: Nc3LysM (protein)
# chain: QFTVPPDTTAEPNTIKTCTWWHVAGSGDSCTSIASTYGITSEQFARWDMETTDSPKNPSVATACKLTVGNSYCIENNFGQDDPPTPSISSSTLIGTATTSTTASTTTGNGISTPTPIQEGMETATTTTSSGNGITTPTPTQAGMETVGNCDRFHLVKSGDQCGTIASTYGITLANFYSWNPAVGTSCQSLWLDTYVCVRTIGFVPPKTTTTTTKKPTSTTSAGGVATPTPTQPGMETVSGCKKFHKGRGNVSTVASGDQCGTIATRYGISLANFYSWNPAVGSSCQTLWLDYYVCVGR
# Columns and labels:
# Experiment in all cases: glycan array binding signal (z-score within array); higher = stronger binding
# Conditions in all cases: glycan notation: IUPAC condensed, linker removed
# Neu5Ac(a2-8)Neu5Ac = biological target: Neu5Ac(a2-8)Neu5Ac
# Method in brief: (§1)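 Columns mapping to the same glycan were averaged after glycan names were converted to IUPAC-condensed notation. The data come from 3228 arrays in the Consortium for Functional Glycomics database, limited to those with an available protein sequence. Binding is reported as a within-array Z-score averaged across arrays of one protein sequence and across linkers.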
# [1] = biological target: Neu5Ac(a2-8)Neu5Ac(a2-3)Gal(b1-3)GalNAc(b1-4)[Neu5Ac(a2-3)]Gal(b1-4)Glc
# Method in brief: as §1
# [2] = biological target: Neu5Ac(a2-8)Neu5Ac(a2-3)Gal(b1-3)GalNAc(b1-4)[Neu5Ac(a2-8)Neu5Ac(a2-3)]Gal(b1-4)Glc
# Method in brief: as §1
# [3] = biological target: Neu5Ac(a2-8)Neu5Ac(a2-3)Gal(b1-4)Glc
# Method in brief: as §1
# [4] = biological target: Neu5Ac(a2-8)Neu5Ac(a2-3)Gal(b1-4)GlcNAc
# Method in brief: as §1
# [5] = biological target: Neu5Ac(a2-8)Neu5Ac(a2-3)[Gal(b1-3)GalNAc(b1-4)]Gal(b1-4)Glc
# Method in brief: as §1
# [6] = biological target: Neu5Ac(a2-8)Neu5Ac(a2-3)[GalNAc(b1-4)]Gal(b1-4)Glc
# Method in brief: as §1
# [7] = biological target: Neu5Ac(a2-8)Neu5Ac(a2-8)Neu5Ac
# Method in brief: as §1
# [8] = biological target: Neu5Ac(a2-8)Neu5Ac(a2-8)Neu5Ac(a2-3)Gal(b1-4)Glc
# Method in brief: as §1
# [9] = biological target: Neu5Ac(a2-8)Neu5Ac(a2-8)Neu5Ac(a2-3)[Gal(b1-3)GalNAc(b1-4)]Gal(b1-4)Glc
# Method in brief: as §1
# [10] = biological target: Neu5Ac(a2-8)Neu5Ac(a2-8)Neu5Ac(a2-3)[GalNAc(b1-4)]Gal(b1-4)Glc
# Method in brief: as §1
# [11] = biological target: Neu5Ac(a2-8)Neu5Ac(a2-8)Neu5Ac(a2-8)Neu5Ac(a2-3)[GalNAc(b1-4)]Gal(b1-4)Glc
# Method in brief: as §1
# [12] = biological target: Neu5Ac(a2-8)Neu5Gc(a2-3)Gal(b1-4)GlcNAc
# Method in brief: as §1
# [13] = biological target: Neu5Ac(b2-6)Gal(b1-4)GlcNAc
# Method in brief: as §1
# Neu5Ac(b2-6)GalNAc = biological target: Neu5Ac(b2-6)GalNAc
# Method in brief: as §1
# [14] = biological target: Neu5Ac9Ac(a2-3)Gal(b1-3)GlcNAc
# Method in brief: as §1
# [15] = biological target: Neu5Ac9Ac(a2-3)Gal(b1-4)GlcNAc
# Method in brief: as §1
# [16] = biological target: Neu5Ac9Ac(a2-6)Gal(b1-4)GlcNAc
# Method in brief: as §1
# [17] = biological target: Neu5Gc(a2-3)Gal(b1-3)GlcNAc
# Method in brief: as §1
# [18] = biological target: Neu5Gc(a2-3)Gal(b1-3)[Fuc(a1-4)]GlcNAc
# Method in brief: as §1
# Neu5Gc(a2-3)Gal(b1-4)Glc = biological target: Neu5Gc(a2-3)Gal(b1-4)Glc
# Method in brief: as §1
# [19] = biological target: Neu5Gc(a2-3)Gal(b1-4)GlcNAc
# Method in brief: as §1
# [20] = biological target: Neu5Gc(a2-3)Gal(b1-4)GlcNAc(b1-3)Gal(b1-4)GlcNAc(b1-2)Man(a1-3)[Neu5Gc(a2-3)Gal(b1-4)GlcNAc(b1-3)Gal(b1-4)GlcNAc(b1-2)Man(a1-6)]Man(b1-4)GlcNAc(b1-4)GlcNAc
# Method in brief: as §1
# [21] = biological target: Neu5Gc(a2-3)Gal(b1-4)[Fuc(a1-3)]GlcNAc
# Method in brief: as §1
# [22] = biological target: Neu5Gc(a2-6)Gal(b1-4)GlcNAc
# Method in brief: as §1
# Neu5Gc(a2-6)GalNAc = biological target: Neu5Gc(a2-6)GalNAc
# Method in brief: as §1
# [23] = biological target: Neu5Gc(a2-8)Neu5Ac(a2-3)Gal(b1-4)GlcNAc
# Method in brief: as §1
# [24] = biological target: Neu5Gc(a2-8)Neu5Gc(a2-3)Gal(b1-4)GlcNAc
# Method in brief: as §1
# [25] = biological target: Neu5Gc(a2-8)Neu5Gc(a2-3)Gal(b1-4)GlcNAc(b1-3)Gal(b1-4)GlcNAc
# Method in brief: as §1
# [26] = biological target: Neu5Gc(a2-8)Neu5Gc(a2-6)Gal(b1-4)GlcNAc
# Method in brief: as §1
# [27] = biological target: Neu5Gc(b2-6)Gal(b1-4)GlcNAc
# Method in brief: as §1
binder,measurement,setting,value
B1,glycan array binding signal (z-score),Neu5Ac(a2-8)Neu5Ac,-0.235
same,glycan array binding signal (z-score),[1],0.043
same,glycan array binding signal (z-score),[2],-0.231
same,glycan array binding signal (z-score),[3],-0.346
same,glycan array binding signal (z-score),[4],0.015
same,glycan array binding signal (z-score),[5],-0.137
same,glycan array binding signal (z-score),[6],-0.148
same,glycan array binding signal (z-score),[7],-0.093
same,glycan array binding signal (z-score),[8],-0.139
same,glycan array binding signal (z-score),[9],0.394
same,glycan array binding signal (z-score),[10],-0.059
same,glycan array binding signal (z-score),[11],0.029
same,glycan array binding signal (z-score),[12],-0.138
same,glycan array binding signal (z-score),[13],-0.191
same,glycan array binding signal (z-score),Neu5Ac(b2-6)GalNAc,-0.031
same,glycan array binding signal (z-score),[14],-0.247
same,glycan array binding signal (z-score),[15],0.103
same,glycan array binding signal (z-score),[16],-0.13
same,glycan array binding signal (z-score),[17],0.134
same,glycan array binding signal (z-score),[18],-0.068
same,glycan array binding signal (z-score),Neu5Gc(a2-3)Gal(b1-4)Glc,-0.021
same,glycan array binding signal (z-score),[19],-0.072
same,glycan array binding signal (z-score),[20],-0.107
same,glycan array binding signal (z-score),[21],-0.048
same,glycan array binding signal (z-score),[22],-0.16
same,glycan array binding signal (z-score),Neu5Gc(a2-6)GalNAc,-0.071
same,glycan array binding signal (z-score),[23],-0.183
same,glycan array binding signal (z-score),[24],0.045
same,glycan array binding signal (z-score),[25],-0.146
same,glycan array binding signal (z-score),[26],-0.131
same,glycan array binding signal (z-score),[27],-0.195
